Measured values taken from PubChem BioAssay AID1768 (National Center for Advancing Translational Sciences (NCATS), 2009).
About 620 (0.23%) of roughly 270,000 compounds were called active. Inconclusive results, whose numbers are uncertain, are shown with a selection of clear calls. Calls come from the whole dose curve; as a rule, active = well fitted inhibition curve with a large enough effect in the polarisation, with a control signal flat (not every such curve was filed as active); inconclusive = small, poorly fitted or top-dose-only effect, or effect the other way, or a change in a side signal; inactive = no such curve, though single readings can be large or run the other way; the % refers to the polarisation. A potency beside an inconclusive call is a rough fit, not a confirmed value. “Side channel” marks fits to a control or component signal instead of the main read-out.

The molecules below were run against Menin (Homo sapiens) (UniProt O00255) (assay: qHTS Assay for Inhibitors Targeting the Menin-MLL Interaction in MLL Related Leukemias: Competition With Texas Red Labeled MLL-derived Mutant Peptide). Details: fluorescence polarization; series mostly up to 61.6 µM.
Potency is the fitted concentration of half-maximal effect; tags give direction and shape of the fitted curve or compound fluorescence and quenching.

Sequence of UniProt O00255 (O00255 whole entry, looked up): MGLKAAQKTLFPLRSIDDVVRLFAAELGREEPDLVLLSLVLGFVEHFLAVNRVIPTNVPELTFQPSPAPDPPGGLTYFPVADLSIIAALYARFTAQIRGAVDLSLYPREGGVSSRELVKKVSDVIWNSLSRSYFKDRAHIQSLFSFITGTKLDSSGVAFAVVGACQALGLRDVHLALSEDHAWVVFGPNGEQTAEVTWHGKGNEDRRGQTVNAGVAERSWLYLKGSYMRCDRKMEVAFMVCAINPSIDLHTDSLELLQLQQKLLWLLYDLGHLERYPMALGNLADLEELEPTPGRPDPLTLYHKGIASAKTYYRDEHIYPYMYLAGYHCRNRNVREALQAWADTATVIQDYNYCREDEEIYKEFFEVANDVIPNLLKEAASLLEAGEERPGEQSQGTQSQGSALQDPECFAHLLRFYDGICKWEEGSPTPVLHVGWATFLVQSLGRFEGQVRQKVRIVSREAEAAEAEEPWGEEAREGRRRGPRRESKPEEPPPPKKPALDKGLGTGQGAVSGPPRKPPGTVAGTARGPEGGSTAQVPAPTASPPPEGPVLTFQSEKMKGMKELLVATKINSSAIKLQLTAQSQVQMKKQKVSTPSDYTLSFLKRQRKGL

| Structure (SMILES) | Potency |
| --- | --- |
| COc1ccccc1Nc1nc(-c2sc(NC(=O)C(C)(C)C)nc2C)cs1 | inconclusive: 14.1 µM [quencher, side channel, partial curve] |
| CCCOc1cccc(-c2nc3ccccc3c(=O)o2)c1 | inconclusive: 39.8 µM [quencher, side channel, single point] |
| COc1cccc(-c2cc(C(F)(F)F)nc(-n3cc(Cl)cn3)n2)c1 | inactive |
| Cc1ccc(NC(=O)c2ccc(COc3ccc4c(c3)CCC4)cc2)c(C)c1 | inconclusive: 31.6 µM [fluorescent, side channel, single point] |
| Cc1ccc(NS(=O)(=O)c2ccc3c(c2)CCN3C(=O)CCC(=O)O)cc1Cl | inconclusive: 31.6 µM [quencher, side channel, partial curve] |
| CCCOc1ccc(C(=O)Nc2ccc3c(c2)OCCO3)cc1 | inconclusive: 39.8 µM [fluorescent, side channel, single point] |
| Cc1ccc(C)c(OCCCN2CCc3ccccc3C2)c1 | inconclusive: 31.6 µM [inhibitor, single point] |
| CCCCc1cn([C@@H](CCCCNC(=O)OC(C)(C)C)C(=O)N2CCN(C(=O)OC(C)(C)C)CC2)nn1 | inconclusive: 12.6 µM [fluorescent, side channel, partial curve] |
| O=C(c1ccco1)N1CCN(C(=O)c2cc(-c3ccccn3)nc3ccccc23)CC1 | inconclusive: 1.78 µM [inhibitor, full curve, poor fit] |
| COc1ccc(CNC(=O)CSc2nnc3c(n2)[nH]c2ccc(OC)cc23)cc1 | inconclusive: 39.8 µM [fluorescent, single point] |
| O=C(COc1ccccc1)N(Cc1ccccc1)c1nc(-c2ccccc2)cs1 | inconclusive: 28.2 µM [inhibitor, single point] |
| c1ccc2c(c1)ncn2-c1ncnc2sc3c(c12)CCCC3 | inconclusive: 22.4 µM [fluorescent, side channel, single point] |
| CC(=O)n1c2c(c3ccccc31)OC(N)=C(C#N)C2c1cccc(Cl)c1Cl (configuration not stated) | inconclusive: 31.6 µM [inhibitor, single point] |
| COc1ccc(NC(=S)NC(NC(=O)CCl)C(Cl)(Cl)Cl)c([N+](=O)[O-])c1 (configuration not stated) | inconclusive: 25.1 µM [quencher, side channel, single point] |
| CCn1c2ccccc2c2cc(CN3CCN(S(=O)(=O)CC)CC3)ccc21 | inactive |
| CN(C)c1ccc(/C=N/N=C/c2ccccc2O)cc1 | inconclusive: 15.8 µM [quencher, side channel, partial curve] |
| O=C(N/N=C/c1cccc(OCc2ccccc2)c1)c1ccc(Br)cc1 | inconclusive: 39.8 µM [inhibitor, single point] |
| Cc1ccc(NC(=O)c2cccs2)cc1NC(=O)c1ccco1 | inconclusive: 0.631 µM [inhibitor, partial curve, poor fit] |
| COC(=O)c1ccc2c(=O)n(CCN3CCOCC3)c(SCC(=O)Nc3cccc(OC)c3)nc2c1 | inactive |

| Structure (SMILES) | Potency |
| --- | --- |
| O=C(Nc1cccc(N=Cc2cc(Cl)cc(Br)c2O)c1)c1ccco1 | inconclusive: 35.5 µM [quencher, side channel, single point] |
| COc1ccc(/C=C/C(=O)Oc2ccc(/C=N\NC(=O)c3ccc(F)cc3)cc2)cc1 | inconclusive: 3.55 µM [inhibitor, partial curve, poor fit] |
| CCOc1ccc(NC(=O)NNC(=O)c2ccc3ccccc3c2O)cc1 | inconclusive: 25.1 µM [quencher, side channel, partial curve] |
| O=C(NC(=S)NNC(=O)c1ccccc1O)c1ccc(F)cc1 | inactive |
| COc1ccc(NS(=O)(=O)c2cc(NC(=O)/C=C/c3cccs3)ccc2N2CCOCC2)cc1 | inconclusive: 28.2 µM [inhibitor, single point] |
| O=C(NC(Cc1ccccc1)C(=O)O)c1ccc(S(=O)(=O)N2CCOCC2)cc1 (configuration not stated) | inconclusive: 3.55 µM [inhibitor, single point] |
| Cc1nc2ccccc2c2oc(C(=O)N3CCC(C)CC3)cc12 | inconclusive: 28.2 µM [fluorescent, side channel, partial curve] |
| O=C(CN1C(=O)C2C3c4ccccc4C(c4ccccc43)C2C1=O)Nc1ccccc1C(=O)O (configuration not stated) | inconclusive: 14.1 µM [quencher, side channel, partial curve] |
| O=C(CCC1CCCCC1)NCCN1C2=NC[C@H](Cc3ccccc3)N2C[C@H]1Cc1ccc(O)cc1 | inconclusive: 2.82 µM [fluorescent, side channel, full curve] |
| CC1(C)c2ccccc2N2CC(=O)N(CC(N)=O)C21C (configuration not stated) | inconclusive: 31.6 µM [inhibitor, single point] |
| Cc1c2cnn(CC(=O)NCCCN3CCCCC3C)c(=O)c2c(C)n1Cc1ccccc1 (configuration not stated) | inconclusive: 8.91 µM [inhibitor, partial curve] |
| CCOC(=O)c1ccccc1NC(=O)c1ccc2nccnc2c1 | inconclusive: 17.8 µM [quencher, side channel, partial curve] |
| COc1cc(SC)ccc1C(=O)NC1CCCc2ccccc21 (configuration not stated) | inconclusive: 35.5 µM [fluorescent, side channel, single point] |
| CCN(CC)CCOc1ccc2c(c1)C(=NNC(=O)c1ccccn1)c1cc(OCCN(CC)CC)ccc1-2 | inconclusive: 25.1 µM [inhibitor, partial curve] |
| CC(=O)Nc1cccc(/C(C)=N/Nc2nc3ccccc3s2)c1 | inconclusive: 22.4 µM [quencher, side channel, partial curve] |
| O=C(NCC1CCCCC1)c1cccc(Br)c1 | inconclusive: 39.8 µM [fluorescent, single point] |
| CCn1c(SC)nnc1-c1sc2cc(Cl)ccc2c1Cl | inconclusive: 6.31 µM [fluorescent, side channel, partial curve] |
| Cc1ccc(C(=O)N2N=C(c3ccc(NS(C)(=O)=O)cc3)CC2c2cccs2)cc1 (configuration not stated) | inconclusive: 15.8 µM [quencher, side channel, partial curve] |
